# Reference: the supplement of paper PMC8728848
# This is one part of the list.
# Columns and labels:
# Experiment in all cases: glycan array binding signal (z-score within array); higher = stronger binding
# Settings in all cases: glycan notation: IUPAC condensed, linker removed
# [1] = biological target: Fuc(a1-2)Gal(b1-4)[Fuc(a1-3)]GlcNAc(b1-3)GalNAc
# How it was run: (§1)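 Arrays were curated from the Consortium for Functional Glycomics database, 3228 in total, and kept only where the protein sequence was available. Binding is expressed as a within-array Z-score. This score was averaged across arrays of the same protein sequence at different concentrations or buffers and across linkers, and negative values can be read as non-binding.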
# [2] = biological target: Fuc(a1-2)Gal(b1-4)[Fuc(a1-3)]GlcNAc(b1-3)[Neu5Ac(a2-6)Gal(b1-4)GlcNAc(b1-6)]Gal(b1-4)Glc
# How it was run: as §1
# [3] = biological target: Fuc(a1-2)Gal3S(b1-4)GlcNAc
# How it was run: as §1
# [4] = biological target: Fuc(a1-2)Gal6S(b1-3)GlcNAc
# How it was run: as §1
# [5] = biological target: Fuc(a1-2)Gal6S(b1-3)GlcNAc6S
# How it was run: as §1
# [6] = biological target: Fuc(a1-2)Gal6S(b1-4)Glc
# How it was run: as §1
# [7] = biological target: Fuc(a1-2)Gal6S(b1-4)Glc6S
# How it was run: as §1
# [8] = biological target: Fuc(a1-2)Gal6S(b1-4)GlcNAc
# How it was run: as §1
# [9] = biological target: Fuc(a1-2)GlcNAc
# How it was run: as §1
# [10] = biological target: Fuc(a1-2)[Gal(a1-3)]Gal
# How it was run: as §1
# [11] = biological target: Fuc(a1-2)[Gal(a1-3)]Gal(b1-3)GalNAc
# How it was run: as §1
# [12] = biological target: Fuc(a1-2)[Gal(a1-3)]Gal(b1-3)GalNAc(b1-3)Gal(a1-4)Gal(b1-4)Glc
# How it was run: as §1
# [13] = biological target: Fuc(a1-2)[Gal(a1-3)]Gal(b1-3)GlcNAc
# How it was run: as §1
# [14] = biological target: Fuc(a1-2)[Gal(a1-3)]Gal(b1-3)GlcNAc(b1-2)Man(a1-3)[Fuc(a1-2)[Gal(a1-3)]Gal(b1-3)GlcNAc(b1-2)Man(a1-6)]Man(b1-4)GlcNAc(b1-4)GlcNAc
# How it was run: as §1
# [15] = biological target: Fuc(a1-2)[Gal(a1-3)]Gal(b1-3)GlcNAc(b1-2)Man(a1-3)[Fuc(a1-2)[Gal(a1-3)]Gal(b1-3)GlcNAc(b1-2)Man(a1-6)]Man(b1-4)GlcNAc(b1-4)[Fuc(a1-6)]GlcNAc
# How it was run: as §1
# [16] = biological target: Fuc(a1-2)[Gal(a1-3)]Gal(b1-3)GlcNAc(b1-3)GalNAc
# How it was run: as §1
# [17] = biological target: Fuc(a1-2)[Gal(a1-3)]Gal(b1-3)GlcNAc(b1-6)GalNAc
# How it was run: as §1
# [18] = biological target: Fuc(a1-2)[Gal(a1-3)]Gal(b1-4)Glc
# How it was run: as §1
# [19] = biological target: Fuc(a1-2)[Gal(a1-3)]Gal(b1-4)GlcNAc
# How it was run: as §1
# [20] = biological target: Fuc(a1-2)[Gal(a1-3)]Gal(b1-4)GlcNAc(b1-2)Man
# How it was run: as §1
# [21] = biological target: Fuc(a1-2)[Gal(a1-3)]Gal(b1-4)GlcNAc(b1-2)Man(a1-3)[Fuc(a1-2)[Gal(a1-3)]Gal(b1-4)GlcNAc(b1-2)Man(a1-6)]Man(b1-4)GlcNAc(b1-4)GlcNAc
# How it was run: as §1
# [22] = biological target: Fuc(a1-2)[Gal(a1-3)]Gal(b1-4)GlcNAc(b1-2)Man(a1-3)[Fuc(a1-2)[Gal(a1-3)]Gal(b1-4)GlcNAc(b1-2)Man(a1-6)]Man(b1-4)GlcNAc(b1-4)[Fuc(a1-6)]GlcNAc
# How it was run: as §1
# [23] = biological target: Fuc(a1-2)[Gal(a1-3)]Gal(b1-4)GlcNAc(b1-3)GalNAc
# How it was run: as §1
# [24] = biological target: Fuc(a1-2)[Gal(a1-3)]Gal(b1-4)GlcNAc(b1-6)GalNAc
# How it was run: as §1
# [25] = biological target: Fuc(a1-2)[Gal(a1-3)]Gal(b1-4)[Fuc(a1-3)]Glc
# How it was run: as §1
# [26] = biological target: Fuc(a1-2)[Gal(a1-3)]Gal(b1-4)[Fuc(a1-3)]GlcNAc
# How it was run: as §1
# [27] = biological target: Fuc(a1-2)[Gal(a1-3)]Gal(b1-4)[Fuc(a1-3)]GlcNAc(b1-3)GalNAc
# How it was run: as §1
# [28] = biological target: Fuc(a1-2)[Gal(a1-4)]Gal(b1-4)GlcNAc
# How it was run: as §1
# [29] = biological target: Fuc(a1-2)[GalNAc(a1-3)]Gal
# How it was run: as §1
# [30] = biological target: Fuc(a1-2)[GalNAc(a1-3)]Gal(b1-3)GalNAc(a1-3)[Fuc(a1-2)]Gal(b1-4)GlcNAc
# How it was run: as §1
# [31] = biological target: Fuc(a1-2)[GalNAc(a1-3)]Gal(b1-3)GalNAc(b1-3)Gal(a1-4)Gal(b1-4)Glc
# How it was run: as §1
# [32] = biological target: Fuc(a1-2)[GalNAc(a1-3)]Gal(b1-3)GlcNAc
# How it was run: as §1
# [33] = biological target: Fuc(a1-2)[GalNAc(a1-3)]Gal(b1-3)GlcNAc(b1-2)Man(a1-3)[Fuc(a1-2)[GalNAc(a1-3)]Gal(b1-3)GlcNAc(b1-2)Man(a1-6)]Man(b1-4)GlcNAc(b1-4)GlcNAc
# How it was run: as §1
# [34] = biological target: Fuc(a1-2)[GalNAc(a1-3)]Gal(b1-3)GlcNAc(b1-2)Man(a1-3)[Fuc(a1-2)[GalNAc(a1-3)]Gal(b1-3)GlcNAc(b1-2)Man(a1-6)]Man(b1-4)GlcNAc(b1-4)[Fuc(a1-6)]GlcNAc
# How it was run: as §1
# [35] = biological target: Fuc(a1-2)[GalNAc(a1-3)]Gal(b1-3)GlcNAc(b1-3)GalNAc
# How it was run: as §1
# [36] = biological target: Fuc(a1-2)[GalNAc(a1-3)]Gal(b1-3)GlcNAc(b1-6)GalNAc
# How it was run: as §1
# [37] = biological target: Fuc(a1-2)[GalNAc(a1-3)]Gal(b1-4)Glc
# How it was run: as §1
# [38] = biological target: Fuc(a1-2)[GalNAc(a1-3)]Gal(b1-4)GlcNAc
# How it was run: as §1
# [39] = biological target: Fuc(a1-2)[GalNAc(a1-3)]Gal(b1-4)GlcNAc(b1-2)Man
# How it was run: as §1
# [40] = biological target: Fuc(a1-2)[GalNAc(a1-3)]Gal(b1-4)GlcNAc(b1-2)Man(a1-3)[Fuc(a1-2)[GalNAc(a1-3)]Gal(b1-4)GlcNAc(b1-2)Man(a1-6)]Man(b1-4)GlcNAc(b1-4)GlcNAc
# How it was run: as §1
# [41] = biological target: Fuc(a1-2)[GalNAc(a1-3)]Gal(b1-4)GlcNAc(b1-2)Man(a1-3)[Fuc(a1-2)[GalNAc(a1-3)]Gal(b1-4)GlcNAc(b1-2)Man(a1-6)]Man(b1-4)GlcNAc(b1-4)[Fuc(a1-6)]GlcNAc
# How it was run: as §1
# [42] = biological target: Fuc(a1-2)[GalNAc(a1-3)]Gal(b1-4)GlcNAc(b1-3)Gal(b1-4)GlcNAc
# How it was run: as §1
# [43] = biological target: Fuc(a1-2)[GalNAc(a1-3)]Gal(b1-4)GlcNAc(b1-3)Gal(b1-4)GlcNAc(b1-3)Gal(b1-4)GlcNAc
# How it was run: as §1
# [44] = biological target: Fuc(a1-2)[GalNAc(a1-3)]Gal(b1-4)GlcNAc(b1-3)GalNAc
# How it was run: as §1
# [45] = biological target: Fuc(a1-2)[GalNAc(a1-3)]Gal(b1-4)GlcNAc(b1-3)[Fuc(a1-2)[GalNAc(a1-3)]Gal(b1-4)GlcNAc(b1-6)]GalNAc
# How it was run: as §1
binder,measurement,setting,value
"MAL-II (Maackia amurensis), P93248 (protein) ATSNSKPTQVLLATFLTFFFLLLNNVNSSDELSFTINNFVPNEADLLFQGEASVSSTGVLQLTRVENGQPQQYSVGRALYAAPVRIWDNTTGSVASFSTSFTFVVKAPNPTITSDGLAFFLAPPDSQIPSGRVSKYLGLFNNSNSDSSNQIVAVEFDTYFGHSYDPWDPNYRHIGIDVNGIESIKTVQWDWINGGVAFATITYLAPNKTLIASLVYPSNQTSFIVAASVDLKEILPEWVRVGFSAATGYPTQVETHDVLSWSFTSTLEANSDAATENNVHIARYTA",glycan array binding signal (z-score),[1],1.86
same,glycan array binding signal (z-score),[2],-0.228
same,glycan array binding signal (z-score),[3],-0.241
same,glycan array binding signal (z-score),[4],-0.282
same,glycan array binding signal (z-score),[5],-0.253
same,glycan array binding signal (z-score),[6],-0.148
same,glycan array binding signal (z-score),[7],-0.217
same,glycan array binding signal (z-score),[8],-0.221
same,glycan array binding signal (z-score),[9],-0.24
same,glycan array binding signal (z-score),[10],-0.107
same,glycan array binding signal (z-score),[11],-0.178
same,glycan array binding signal (z-score),[12],-0.064
same,glycan array binding signal (z-score),[13],-0.131
same,glycan array binding signal (z-score),[14],-0.218
same,glycan array binding signal (z-score),[15],0.051
same,glycan array binding signal (z-score),[16],-0.241
same,glycan array binding signal (z-score),[17],-0.239
same,glycan array binding signal (z-score),[18],-0.22
same,glycan array binding signal (z-score),[19],-0.206
same,glycan array binding signal (z-score),[20],-0.224
same,glycan array binding signal (z-score),[21],-0.159
same,glycan array binding signal (z-score),[22],-0.091
same,glycan array binding signal (z-score),[23],-0.135
same,glycan array binding signal (z-score),[24],-0.206
same,glycan array binding signal (z-score),[25],-0.2
same,glycan array binding signal (z-score),[26],-0.173
same,glycan array binding signal (z-score),[27],0.653
same,glycan array binding signal (z-score),[28],-0.171
same,glycan array binding signal (z-score),[29],-0.238
same,glycan array binding signal (z-score),[30],-0.105
same,glycan array binding signal (z-score),[31],-0.188
same,glycan array binding signal (z-score),[32],-0.208
same,glycan array binding signal (z-score),[33],-0.184
same,glycan array binding signal (z-score),[34],-0.256
same,glycan array binding signal (z-score),[35],-0.074
same,glycan array binding signal (z-score),[36],-0.266
same,glycan array binding signal (z-score),[37],-0.237
same,glycan array binding signal (z-score),[38],-0.223
same,glycan array binding signal (z-score),[39],-0.258
same,glycan array binding signal (z-score),[40],-0.255
same,glycan array binding signal (z-score),[41],-0.042
same,glycan array binding signal (z-score),[42],-0.177
same,glycan array binding signal (z-score),[43],-0.106
same,glycan array binding signal (z-score),[44],-0.13
same,glycan array binding signal (z-score),[45],-0.226
